# The list shows a part of the results.
# B1: Siglec-9 (Homo sapiens), Q9Y336 (protein)
# chain: MLLLLLPLLWGRERAEGQTSKLLTMQSSVTVQEGLCVHVPCSFSYPSHGWIYPGPVVHGYWFREGANTDQDAPVATNNPARAVWEETRDRFHLLGDPHTKNCTLSIRDARRSDAGRYFFRMEKGSIKWNYKHHRLSVNVTALTHRPNILIPGTLESGCPQNLTCSVPWACEQGTPPMISWIGTSVSPLDPSTTRSSVLTLIPQPQDHGTSLTCQVTFPGASVTTNKTVHLNVSYPPQNLTMTVFQGDGTVSTVLGNGSSLSLPEGQSLRLVCAVDAVDSNPPARLSLSWRGLTLCPSQPSNPGVLELPWVHLRDAAEFTCRAQNPLGSQQVYLNVSLQSKATSGVTQGVVGGAGATALVFLSFCVIFVVVRSCRKKSARPAAGVGDTGIEDANAVRGSASQGPLTEPWAEDSPPDQPPPASARSSVGEGELQYASLSFQMVKPWDSRGQEATDTEYSEIKIHR
# Experiments:
# Experiment in all cases: glycan array binding signal (z-score within array); higher = stronger binding
# Conditions in all cases: glycan notation: IUPAC condensed, linker removed
# [1] = biological target: Fuc(a1-2)[GalNAc(b1-3)]Gal
# Procedure, shortened: (§1)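 Columns mapping to the same glycan were averaged after glycan names were converted to IUPAC-condensed notation. The data come from 3228 arrays in the Consortium for Functional Glycomics database, limited to those with an available protein sequence. Binding is reported as a within-array Z-score averaged across arrays of one protein sequence and across linkers.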
# Fuc(a1-3)GlcNAc = biological target: Fuc(a1-3)GlcNAc
# Procedure, shortened: as §1
# [2] = biological target: Fuc(a1-3)[Gal(b1-4)]Glc6S
# Procedure, shortened: as §1
# [3] = biological target: Fuc(a1-3)[Gal(b1-4)]GlcNAc
# Procedure, shortened: as §1
# [4] = biological target: Fuc(a1-3)[Gal(b1-4)]GlcNAc(b1-2)Man
# Procedure, shortened: as §1
# [5] = biological target: Fuc(a1-3)[Gal(b1-4)]GlcNAc(b1-2)Man(a1-3)[Fuc(a1-3)[Gal(b1-4)]GlcNAc(b1-2)Man(a1-6)]Man(b1-4)GlcNAc(b1-4)GlcNAc
# Procedure, shortened: as §1
# [6] = biological target: Fuc(a1-3)[Gal(b1-4)]GlcNAc(b1-2)Man(a1-3)[Fuc(a1-3)[Gal(b1-4)]GlcNAc(b1-2)Man(a1-6)]Man(b1-4)GlcNAc(b1-4)[Fuc(a1-6)]GlcNAc
# Procedure, shortened: as §1
# [7] = biological target: Fuc(a1-3)[Gal(b1-4)]GlcNAc(b1-3)Gal(b1-3)[Fuc(a1-4)]GlcNAc
# Procedure, shortened: as §1
# [8] = biological target: Fuc(a1-3)[Gal(b1-4)]GlcNAc(b1-3)Gal(b1-4)[Fuc(a1-3)]GlcNAc
# Procedure, shortened: as §1
# [9] = biological target: Fuc(a1-3)[Gal(b1-4)]GlcNAc(b1-3)Gal(b1-4)[Fuc(a1-3)]GlcNAc(b1-3)Gal(b1-4)[Fuc(a1-3)]GlcNAc
# Procedure, shortened: as §1
# [10] = biological target: Fuc(a1-3)[Gal(b1-4)]GlcNAc(b1-3)GalNAc
# Procedure, shortened: as §1
# [11] = biological target: Fuc(a1-3)[Gal(b1-4)]GlcNAc(b1-6)GalNAc
# Procedure, shortened: as §1
# [12] = biological target: Fuc(a1-3)[Gal(b1-4)]GlcNAc(b1-6)[Gal(b1-3)GlcNAc(b1-3)]Gal(b1-4)Glc
# Procedure, shortened: as §1
# [13] = biological target: Fuc(a1-3)[Gal(b1-4)]GlcNAc6S
# Procedure, shortened: as §1
# [14] = biological target: Fuc(a1-3)[Gal3S(b1-4)]Glc
# Procedure, shortened: as §1
# [15] = biological target: Fuc(a1-3)[Gal3S(b1-4)]GlcNAc
# Procedure, shortened: as §1
# [16] = biological target: Fuc(a1-3)[Gal3S(b1-4)]GlcNAc6S
# Procedure, shortened: as §1
# [17] = biological target: Fuc(a1-3)[GalNAc(b1-4)]GlcNAc
# Procedure, shortened: as §1
# [18] = biological target: Fuc(a1-3)[GalNAc(b1-4)]GlcNAc6S
# Procedure, shortened: as §1
# Fuc(a1-4)GlcNAc = biological target: Fuc(a1-4)GlcNAc
# Procedure, shortened: as §1
# Fuc(b1-3)GlcNAc = biological target: Fuc(b1-3)GlcNAc
# Procedure, shortened: as §1
# Gal(a1-2)Gal = biological target: Gal(a1-2)Gal
# Procedure, shortened: as §1
# Gal(a1-3)Gal = biological target: Gal(a1-3)Gal
# Procedure, shortened: as §1
# Gal(a1-3)Gal(b1-3)GlcNAc = biological target: Gal(a1-3)Gal(b1-3)GlcNAc
# Procedure, shortened: as §1
# [19] = biological target: Gal(a1-3)Gal(b1-3)GlcNAc(b1-2)Man
# Procedure, shortened: as §1
# [20] = biological target: Gal(a1-3)Gal(b1-3)GlcNAc(b1-2)Man(a1-3)[Gal(a1-3)Gal(b1-3)GlcNAc(b1-2)Man(a1-6)]Man(b1-4)GlcNAc(b1-4)GlcNAc
# Procedure, shortened: as §1
# [21] = biological target: Gal(a1-3)Gal(b1-3)GlcNAc(b1-3)GalNAc
# Procedure, shortened: as §1
# [22] = biological target: Gal(a1-3)Gal(b1-3)GlcNAc(b1-6)GalNAc
# Procedure, shortened: as §1
# [23] = biological target: Gal(a1-3)Gal(b1-3)[Fuc(a1-4)]GlcNAc(b1-2)Man(a1-3)[Gal(a1-3)Gal(b1-3)[Fuc(a1-4)]GlcNAc(b1-2)Man(a1-6)]Man(b1-4)GlcNAc(b1-4)GlcNAc
# Procedure, shortened: as §1
# Gal(a1-3)Gal(b1-4)Glc = biological target: Gal(a1-3)Gal(b1-4)Glc
# Procedure, shortened: as §1
# Gal(a1-3)Gal(b1-4)GlcNAc = biological target: Gal(a1-3)Gal(b1-4)GlcNAc
# Procedure, shortened: as §1
# [24] = biological target: Gal(a1-3)Gal(b1-4)GlcNAc(b1-2)Man
# Procedure, shortened: as §1
# [25] = biological target: Gal(a1-3)Gal(b1-4)GlcNAc(b1-2)Man(a1-3)[Gal(a1-3)Gal(b1-4)GlcNAc(b1-2)Man(a1-6)]Man(b1-4)GlcNAc(b1-4)GlcNAc
# Procedure, shortened: as §1
# [26] = biological target: Gal(a1-3)Gal(b1-4)GlcNAc(b1-3)GalNAc
# Procedure, shortened: as §1
# [27] = biological target: Gal(a1-3)Gal(b1-4)GlcNAc(b1-6)GalNAc
# Procedure, shortened: as §1
# [28] = biological target: Gal(a1-3)Gal(b1-4)[Fuc(a1-3)]GlcNAc
# Procedure, shortened: as §1
# [29] = biological target: Gal(a1-3)Gal(b1-4)[Fuc(a1-3)]GlcNAc(b1-2)Man(a1-3)[Gal(a1-3)Gal(b1-4)[Fuc(a1-3)]GlcNAc(b1-2)Man(a1-6)]Man(b1-4)GlcNAc(b1-4)GlcNAc
# Procedure, shortened: as §1
binder,measurement,setting,value
B1,glycan array binding signal (z-score),[1],-0.33
same,glycan array binding signal (z-score),Fuc(a1-3)GlcNAc,-0.293
same,glycan array binding signal (z-score),[2],0.027
same,glycan array binding signal (z-score),[3],-0.085
same,glycan array binding signal (z-score),[4],-0.1
same,glycan array binding signal (z-score),[5],-0.277
same,glycan array binding signal (z-score),[6],-0.039
same,glycan array binding signal (z-score),[7],-0.232
same,glycan array binding signal (z-score),[8],0.166
same,glycan array binding signal (z-score),[9],-0.291
same,glycan array binding signal (z-score),[10],-0.158
same,glycan array binding signal (z-score),[11],-0.063
same,glycan array binding signal (z-score),[12],-0.132
same,glycan array binding signal (z-score),[13],3.1
same,glycan array binding signal (z-score),[14],-0.117
same,glycan array binding signal (z-score),[15],-0.163
same,glycan array binding signal (z-score),[16],-0.041
same,glycan array binding signal (z-score),[17],-0.233
same,glycan array binding signal (z-score),[18],-0.058
same,glycan array binding signal (z-score),Fuc(a1-4)GlcNAc,0.021
same,glycan array binding signal (z-score),Fuc(b1-3)GlcNAc,-0.156
same,glycan array binding signal (z-score),Gal(a1-2)Gal,-0.148
same,glycan array binding signal (z-score),Gal(a1-3)Gal,-0.16
same,glycan array binding signal (z-score),Gal(a1-3)Gal(b1-3)GlcNAc,0.425
same,glycan array binding signal (z-score),[19],0.393
same,glycan array binding signal (z-score),[20],-0.086
same,glycan array binding signal (z-score),[21],-0.092
same,glycan array binding signal (z-score),[22],0.105
same,glycan array binding signal (z-score),[23],0.309
same,glycan array binding signal (z-score),Gal(a1-3)Gal(b1-4)Glc,-0.257
same,glycan array binding signal (z-score),Gal(a1-3)Gal(b1-4)GlcNAc,-0.323
same,glycan array binding signal (z-score),[24],-0.23
same,glycan array binding signal (z-score),[25],-0.047
same,glycan array binding signal (z-score),[26],-0.083
same,glycan array binding signal (z-score),[27],0.048
same,glycan array binding signal (z-score),[28],-0.249
same,glycan array binding signal (z-score),[29],0.041
